Measured values taken from the RNAGym collection of RNA variant scans (doi:10.1093/nar/gkz1192).
The source gives no read counts; variants with many changes may rest on few reads.

B1: CPEB3 Ribozyme (parent)
chain: UAACAGGGGGCCACAGCAGAAGCGUUCACGUCGCAGCCCCUGUCAGAUUCUGGUGAAUCUGCGAAUUCUGCUGUAUAUCUC

Variants of: B1
Assay: self-cleavage, relative activity (ratio to wild type); higher = more cleavage; in vitro, sequencing
How it was run: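 For each CPEB3 ribozyme variant, relative activity is its cleaved/total read fraction divided by the unmutated ribozyme's. Barcoded error-prone PCR libraries were transcribed by T7 RNA polymerase (5 hours, 37°C) and held in DNase I for 15 min before an EDTA stop, with cleavage occurring throughout. Template-switching reverse transcription and Illumina sequencing were used to read the RNAs. A 5-read minimum applied, and results are the mean of three batches.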

| Variant | self-cleavage |
| --- | --- |
| UAACAGGGGGCCACAGCAGAAGCGGUCACGUCGCAGCCCCUGUCAGGUUCUGGUGAAUCUGCGAAUUCUGCUGUAUAACUC | 0.63 |
| UAACAGGGGGCCACAGCAGAAGCGUACUCGUCGCUGCCCCUGUCAGAUUCUGGUGAAUCUGCGAAUUCUGCGGUAUACCUC | 0.18 |
| UAACAGGGGGCCACAGCAGAAGCGCUCACGUCGCAGCCCCUGUCAGAUUCUGGUGAAUCUGCGAAUUCUGCCGUAUGUCUC | 0.16 |
| UAACAGGGGGCCACAGCAGAAGCGGACACGUCGCAGCCCCCGUCAGAUACUGGUGAAUCUGCGAAUCCUGCUGUAUAUCUC | 0.24 |
| UAACAGGGGGCCACAGCAGAAGCGUACGCGUCGCAGCCCCUGUCAGAUACUGGUGAAUCUGCGAAUUCUGCUGUAUACCAC | 0.09 |
| UAACAGGGGGCCACAGCAGAAGCGGUCACGUUGCAGCCCCUGUCAGCUUCUGGUGAAUCUACGAAUUCUGCUGUAUAUCUC | 0.05 |
| UAACAGGGGGCCACAGCAGAAGCGGUCACGUCGCAGCCCCAGUCUGUUUCUGGUGAAUCUGCGAAUUCUGCUGUAUAUCUC | 0.23 |
| UAACAGGGGGCCACAGCAGAAGCGUACGCGUCGCAGCCCCUGUCAGAUUCUGGUGAAUCCGCGUAUUCUGCUGUAUACCUC | 0.09 |
| UAACAGGGGGCCACAGCAGAAGCGGUCACGUCGCAGCCCCUGUCGGAUUCUGGUGAAUCUGCGAAUUCUGCUGUAUACCUC | 0.22 |
| UAACAGGGGGCCACAGCAGAAGCGUACGCGUACCAGCCCCUGUCAGAUUCUGGUUAAUCUGCGAAUUCUGCUGUACAUCCC | 0.07 |
| UAACAGGGGGCCACAGCAGAAGCGGUCACGUCGCGGCCCCUGCCAGAUUCUGGUGAAUCUGCGAAUUCUGCUGUAUAUCUC | 0.44 |
| UAACAGGGGGCCACAGCAGAAGCGUACACGUCGCUGCCCCCGCCAGAUUCCGGUGAAUCUGCGAAUACUGCUGUAUAUCUC | 0.08 |
| UAACAGGGGGCCACAGCAGAAGCGGUCGCGUCGCGGCCGCUGUCAGAUCCUGGUGAAUCUGCGAAUUCUGCCGUAUAUCGC | 0.2 |
| UAACAGGGGGCCACAGCAGAAGCGUACACGUCGCGGCCCCUGCCAGAUUCUGGUGAAUCAGCGAAUUCUGCUGUAUAUCUC | 0.12 |
| UAACAGGGGGCCACAGCAGAAGCGGUCACGUCGCAGCCCCCGUCGGAUUCUGGUGAAUCUGCGAAUUCUGCUGUAUAUCUC | 0.14 |
| UAACAGGGGGCCACAGCAGAAGCGCUCACGUCGCAGCCCCUGUCAGAUUCUGGUGAAUCUGCGAAUUCCGCUGAAUAUCUC | 0.16 |
| UAACAGGGGGCCACAGCAGAAGCGUACUCGUCGCAGCCCCUGUCAGAUUCUGGUGAAUCUGCGAAUUCUGCUGAAUAUCUC | 0.87 |
| UAACAGGGGGCCACAGCAGAAGCGGUCACGUCGCAGCCCCUGUCAGAUUCUGGCGAAUCUGCGAACUCUGCUGUAUAUCUC | 0.39 |
| UAACAGGGGGCCACAGCAGAAGCGUACACGUCGCGGCCCCUGUCAGGUUCUGGUGAAUCUGCGAAUUCUGCUGUAUAUCUC | 1.36 |
| UAACAGGGGGCCACAGCAGAAGCGUACUCGUCGCAGCCCCAGUCAGAUUCUGGUGAAUCUGCGAAUACUGCUGUAUAUCCC | 0.11 |
| UAACAGGGGGCCACAGCAGAAGCGCUCACGUCGCAGCCCCUGUCAGAUUCUGGUGAAUCUGCGAAUCCUGCUGAAUAUCUC | 0.15 |
| UAACAGGGGGCCACAGCAGAAGCGUACUCGUCGCGGCCCCUGUCAGAUUCUGGUGAGUCUGCGAAUUCUGCUGUAUAUCUC | 1.14 |
| UAACAGGGGGCCACAGCAGAAGCGUACGCGCCGCAGCCCCUGUCAGAUUCUGGUGAAUCUGCGAAUUCUGCUGUAUAUCUC | 0.14 |

| Variant | self-cleavage |
| --- | --- |
| UAACAGGGGGCCACAGCAGAAGCGUACGCGACGCAGCCCCUGUCAGAUUCUGGUGAAUCUGCGAAUUCUGCUGUAUAUCUC | 0.14 |
| UAACAGGGGGCCACAGCAGAAGCGCUCACGUCGCAGCCCCUGUCAGAUUCUGGUGAAUCUGCGAAUUCUGCAGUAUACCUC | 0.23 |
| UAACAGGGGGCCACAGCAGAAGCGCUCACGUCGCAGCCCCUGUCAGAUUCUGGUGAAUCUGCGAAUUCUGCCGUGUAUCUC | 0.39 |
| UAACAGGGGGCCACAGCAGAAGCGCUCACGUCGCAGCCCCUGUCAGAUUCUGGUGAAUCUGCGAAUUCUGCAGCAUAUCUC | 0.2 |
| UAACAGGGGGCCACAGCAGAAGCGGUCACGUCACAGCCCCUGUCAGAUUCCGGUGAACCUGCGAAUUCUGCUGUAUAUCUC | 0.14 |
| UAACAGGGGGCCACAGCAGAAGCGUACACGUCGCUGCCCCCGCCAGAUUCUGGUGAAUCUGCGGAGUCUGCUGUAUAUCUC | 0.17 |
| UAACAGGGGGCCACAGCAGAAGCGGUCACGUCGCAGCCCCUGUCUGAUUCGGGUGUAUCUGCGAAUUCAGCUGUAUAUCCC | 0.09 |
| UAACAGGGGGCCACAGCAGAAGCGUACGCGUCGCAGCCCCUGUCAGAUUCUGGUGAAUCUGCGAAUUCUGCUGUUUAUCCC | 0.5 |
| UAACAGGGGGCCACAGCAGAAGCGGUCUCGCCGCAGCCCCUGUCAGAUUCUGGUGAAUCUGCGAAUUCUGCUGUAUAUCUC | 0.41 |
| UAACAGGGGGCCACAGCAGAAGCGGUCACGUCGCAGCCCCUGUCAGGUUCUGGUGGAUCUGCGAAUUCUGCCGUAUAUCUC | 0.25 |
| UAACAGGGGGCCACAGCAGAAGCGGUCACGUCGCAGCCCCUGUCAGAUUCUGGUGAAUCUGCGAAAUCCGCUGUAUAUCUC | 0.07 |
| UAACAGGGGGCCACAGCAGAAGCGUACUCGUCGCAGCCCCUGUCAGAUCCUGGUGAAUCUGCGAAUUCUGCUGUAUAUCUC | 0.14 |
| UAACAGGGGGCCACAGCAGAAGCGUACUCGUCGCAGCCCCUGUCAGGUUCUGGUGAAUCUGCGAAUUCUGCAGAGUAUCUC | 1.2 |
| UAACAGGGGGCCACAGCAGAAGCGUACACGUCGCGGCCACUGUCAGAUUCUGGUGAGUCUGCGAAUUCUGCUGUAUAUCUC | 0.52 |
| UAACAGGGGGCCACAGCAGAAGCGGUCGCGUCGCAGCCCCUGUCGGAUUCUGGUGGAUCUGCGAAUUCUGCUGUAUAUCUC | 0.35 |
| UAACAGGGGGCCACAGCAGAAGCGGUCACGUCGCAGCCCCAGUCAGAUUCUGGUGAAUCUGCGAAUUCUGCUGUAUAUCCC | 0.1 |
| UAACAGGGGGCCACAGCAGAAGCGUACACGUCGCGGCCCCUGUCAGAUUCUGGUGAUUCUGCGAAUUCUGCUGUAUAUCUC | 1.04 |
| UAACAGGGGGCCACAGCAGAAGCGUACACGUCGCGGCCCCUGUCAGAUUCUGGAUAAUCUGCUAAUUCUGCUGUAUAUCUC | 1.26 |
| UAACAGGGGGCCACAGCAGAAGCGUACGCGUCGCAGCCCCUGUCAGAUCCUGGUGAACCUGCGAAUUCUGCUGUACAUCUC | 0.03 |
| UAACAGGGGGCCACAGCAGAAGCGGUCACGUCGCAGCCCCUGUCAGGUUCAGGAGAAUCUGCGAAUCCUGCUGUAUAUCCC | 0.08 |
| UAACAGGGGGCCACAGCAGAAGCGUACGCGUCGCAGCCCCUGUCAGAUUCUGGUGGAUCUGCGAAUUCUGCUGUAUAACUC | 0.38 |
| UAACAGGGGGCCACAGCAGAAGCGGUCACGUCGCAGUCCCUGUCAGAUUCUGGCGGAUCUGAGAAUUCUGCUGUAUACCUC | 0.13 |
| UAACAGGGGGCCACAGCAGAAGCGGUCACGUCACAGCCCCAGUCAGAUUCUGGUGAACCAGCGAAUUUUGCUGUAUAUCUC | 0.12 |

| Variant | self-cleavage |
| --- | --- |
| UAACAGGGGGCCACAGCAGAAGCGUACACGUCGCCGCCCCUGUCGGACUCUGGUGAAUCUGCGAAUUCUGCUGUAUAUCUC | 0.1 |
| UAACAGGGGGCCACAGCAGAAGCGUACACGUCGCGGCCCCAGUCAGAUCCUGGUGACUCUGCGAACUCUGCUGUAUACCUC | 0.07 |
| UAACAGGGGGCCACAGCAGAAGCGGUCACGUCGCAGCCCCUGUCAGAUUCUGGUGAAUCUGCGAGUUCUGCUGUAUACCUC | 0.07 |
| UAACAGGGGGCCACAGCAGAAGCGUACACGUCGCCGCCCCUGUCAGAUUCUGGUGUGUAUGCGAAUUCUGCUGUAUAUCUC | 0.3 |
| UAACAGGGGGCCACAGCAGAAGCGGACACGUCGCAGCCCCUGUCAGACUCUGGUGAAUCUGCGAAUUCUGCUGUAUAUCUC | 0.53 |
| UAACAGGGGGCCACAGCAGAAGCGGUCACGUCGCAGCCCCCGUCAGAUUCUGGUGAAUCUGCGAAUUCUUCUGUAUAUCUC | 0.05 |
| UAACAGGGGGCCACAGCAGAAGCGCUCACGUCGCAGCCCCUGUCAGAUUCUGGUGAAUCUGCGAAUUCUGCUGCUUAUCUC | 0.16 |
| UAACAGGGGGCCACAGCAGAAGCGGUCACGUCGCUGCCCCUGUCAGAUUCGGGUGAAUCUGCAAGUUCUGCUCUAUAUCUC | 0.19 |
| UAACAGGGGGCCACAGCAGAAGCGUACACGUCGCUGCCCCAGUCAGAUUCUGGUGAAUCCGCGAAUUCUGCUGUAUUUCUC | 0.1 |
| UAACAGGGGGCCACAGCAGAAGCGGUCACGUCGCAGCCCCAGUCAGAUUCUGGUGAAUCUGCGAAUUCUGCUAUAUACCUC | 0.07 |
| UAACAGGGGGCCACAGCAGAAGCGGUCACGUCGCAGCCCCUGUCAGAUUCUGGUGAAUCUGCGAAUUCUGCCGUAUAUCCC | 0.45 |
| UAACAGGGGGCCACAGCAGAAGCGUACGCGUCGCAGCCCCUGUCAGAUACUGGUGAGUCUGCGAAUUCUGCUGAAUACCUC | 0.13 |
| UAACAGGGGGCCACAGCAGAAGCGUACCCGUCGCAGCCCCUGUCAGACUCUGGUGAAUCUCCGAAUUCUGCUGUAUAUCUC | 0.07 |
| UAACAGGGGGCCACAGCAGAAGCGUACGCGUCGCAGCCCCUGCCAGAUUCUGGUGAAUCUGCGAAUAUUGCUGUAUAUCUC | 0.17 |
| UAACAGGGGGCCACAGCAGAAGCGGUCACGUCGAAGCCCCUGCCCGAUUCUGGUGAAUCUGCGUAUUCUGCUGUAUAUCUC | 0.07 |
| UAACAGGGGGCCACAGCAGAAGCGGUCACGUCGCAGCCCCUGUCAGAUUCUGGUGAAUCUGCGAGUCCUGCUGUAUAUCUC | 0.13 |
| UAACAGGGGGCCACAGCAGAAGCGUACGCGUCGCAGCCCCUGUCAGAUUCUGGUGAAUCUGAGAAUUCUGCAUUAUACCUC | 0.06 |
| UAACAGGGGGCCACAGCAGAAGCGGUCACGUCGCAGCCCCUGUCAGAUCCUGGUGAAUCUGCGGAUUCUGCUGUAUAUCUC | 0.13 |
| UAACAGGGGGCCACAGCAGAAGCGGUCACGUCGCAGCCCCUGUCAGAUUCUGGUGAAUCUGCGAUUUCUGCUGCAUAUCUC | 0.29 |
| UAACAGGGGGCCACAGCAGAAGCGUACACGUCGCUGCCCCUGUCAGACUCUGGUGAAUCUGCGAAUCCUGCUGUAUGUCUC | 0.07 |
| UAACAGGGGGCCACAGCAGAAGCGUACGCGUCGCAGCCCCUGUCAGGUUCUGGUGAAUCUGCGAACUCUGCUGUAUAUCUC | 0.16 |
| UAACAGGGGGCCACAGCAGAAGCGUACACGUCGCUGCCCCCGUCAGAUUCUGGUGAACCUGCGAAUUCUGCUGUAUAUCUC | 0.17 |
